What all share (test): Primary Screen for Target Class Profiling of Small Molecule Inhibitors of Methyltransferases
The target of assay [1] is Glycine N-methyltransferase (Homo sapiens) (UniProt Q14749). The settings on record: purified enzyme, MTase-Glo SAH luminescence; measured here: GNMT inhibition; at 40 µM; stronger effect = lower value. In short, it runs like this:
(§1)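 Each enzyme was reacted with SAM and its substrate, with compounds tested once at 40 uM; SAH formed was read by MTase-Glo luminescence.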

For assay [2], the target named is Guanidinoacetate N-methyltransferase (Homo sapiens) (UniProt Q14353). The settings on record: purified enzyme, MTase-Glo SAH luminescence; measured here: GAMT inhibition; at 40 µM; stronger effect = lower value. In short, it runs like this: as §1
The target of assay [3] is Histamine N-methyltransferase (Homo sapiens) (UniProt P50135). The settings on record: purified enzyme, MTase-Glo SAH luminescence; measured here: HNMT inhibition; at 40 µM; stronger effect = lower value. In short, it runs like this:
as §1

Assay [4] has as its target Nicotinamide N-methyltransferase (Homo sapiens) (UniProt P40261). Particulars: purified enzyme, MTase-Glo SAH luminescence; measured here: NNMT inhibition; at 40 µM; stronger effect = lower value. The method, boiled down:
as §1

Assay [5] addresses Phenylethanolamine N-methyltransferase (Homo sapiens) (UniProt P11086). Particulars: purified enzyme, MTase-Glo SAH luminescence; measured here: PNMT inhibition; at 40 µM; stronger effect = lower value. The method, boiled down:
as §1

SMILES strings stand for the structures. Some of the results follow. Shown are side measurements of this screen, not its main read-out; they come without a call.
% is set by controls: 0 for no effect and ±100 for the full control effect.

Take `Cn1c(=O)n(C)c2cc(S(=O)(=O)Nc3ccc(OCc4ccccc4)cc3)ccc21`: the activity change, negative = inhibition was -27.8% in assay [1]; 4.84% in assay [2]; -1.9% in assay [3]; 0.654% in assay [4]; -0.356% in assay [5].

On to `COc1ccccc1-n1cnc2cccnc21`, for which the activity change, negative = inhibition in assay [1] was -2%; in assay [2], 1.11%; in assay [3], -1.77%; in assay [4] it was -17.2%; in assay [5] it was 1.29%.

Turning to `O=C(COC(=O)C(Cc1c[nH]c2ccccc12)NC(=O)c1ccc(Cl)cc1)c1ccccc1` (configuration not stated), the activity change, negative = inhibition is 3.45% in assay [1]; 0% in assay [2]; -1.79% in assay [3]; -5.42% in assay [4]; -1.18% in assay [5].

In the case of `COc1ccc(C(O[C@@H]2O[C@H](CO)[C@@H](O)[C@H](O)[C@H]2O)C(CO)Oc2ccc(/C=C/CO)cc2OC)cc1O` (some centres not stated), the activity change, negative = inhibition in assay [1] was 0%; in assay [2] it was -3.04%; in assay [3], -0.096%; in assay [4], -13.8%; in assay [5], 2.91%.

For the compound `CC1(C(=O)NC2CCCCCCC2)Cn2c(cc3occc32)C(=O)N1c1ccc(Cl)cc1` (configuration not stated), the activity change, negative = inhibition in assay [1] is -1.8%; in assay [2], 0%; in assay [3], 8.34%; in assay [4], -1.37%; in assay [5], 3.39%.

On to `COc1ccc(OC)c(S(=O)(=O)N2CCc3nc(-c4ccc(F)cc4)ncc3C2)c1`, for which the activity change, negative = inhibition is 13.3% in assay [1]; 2.34% in assay [2]; 11.1% in assay [3]; 6.56% in assay [4]; 9.98% in assay [5].

Take `CCCCNC(=O)CCc1nnc2n(Cc3ccc(Cl)cc3)c(=O)c3ccccc3n12`: the activity change, negative = inhibition was 1.94% in assay [1]; 4.18% in assay [2]; 4.74% in assay [3]; 7.64% in assay [4]; 1.64% in assay [5].

As for `CC12C(=O)OC(=O)C1(C)C1CCC2O1` (configuration not stated), the activity change, negative = inhibition is 7.85% in assay [1]; 12.2% in assay [2]; 13.2% in assay [3]; -1.4% in assay [4]; 2.35% in assay [5].

For the compound `CC(C)Cn1c(=O)c2ccccc2n2c(CCC(=O)N3CCC(Cc4ccccc4)CC3)nnc12`, the activity change, negative = inhibition is -36.2% in assay [1]; 0% in assay [2]; 6.69% in assay [3]; -27.5% in assay [4]; 0.948% in assay [5].

In the case of `O=C(NCc1ccc(F)cc1)c1cnc2n[nH]c(-c3ccccc3)c2n1`, the activity change, negative = inhibition was -20% in assay [1]; -20.2% in assay [2]; -18.9% in assay [3]; -28.8% in assay [4]; -22.6% in assay [5].

For the compound `CC(Cn1cncn1)Nc1ccc(-c2nc(Cc3ccc(F)cc3)no2)cn1` (configuration not stated), the activity change, negative = inhibition in assay [1] is -3.13%; in assay [2] it was -0.508%; in assay [3] it was -1.05%; in assay [4], -6.56%; in assay [5] it was -1.41%.

As for `Nc1nc2c(ncn2COC(CO)CO)c(=O)[nH]1`, the activity change, negative = inhibition was -2.41% in assay [1]; 8.11% in assay [2]; 1.47% in assay [3]; -2.33% in assay [4]; 8.21% in assay [5].

Take `CC(C)=CCC/C(C)=C/CO[C@@H]1O[C@H](CO)[C@@H](OC(=O)/C=C/c2ccc(O)cc2)[C@H](O[C@@H]2O[C@@H](C)[C@H](O)[C@@H](O)[C@H]2O)[C@H]1O`: the activity change, negative = inhibition in assay [1] is 0.329%; in assay [2], 1.09%; in assay [3] it was 5.79%; in assay [4], -8.75%; in assay [5] it was -3.89%.

As to `CC(=O)N1Cc2ccccc2CC2(CCN(Cc3ccc(O)cc3)CC2)C1`, the activity change, negative = inhibition in assay [1] was -7.34%; in assay [2] it was -8.21%; in assay [3] it was -12.1%; in assay [4], -23.2%; in assay [5] it was -9.29%.

As for `O=C1N(C2CCCCC2)C[C@H]2CN(S(=O)(=O)c3ccccc3)CCN12`, the activity change, negative = inhibition was 0.295% in assay [1]; 7.31% in assay [2]; 1.36% in assay [3]; -2.99% in assay [4]; -1.91% in assay [5].

As for `CC(C)=CCC[C@](C)(O[C@@H]1O[C@H](CO[C@@H]2OC[C@H](O)[C@H](O)[C@H]2O)[C@@H](O)[C@H](O)[C@H]1O)[C@H]1CC[C@]2(C)[C@@H]1[C@H](O)C[C@@H]1[C@@]3(C)CC[C@H](O[C@@H]4O[C@H](CO)[C@@H](O)[C@H](O)[C@H]4O[C@@H]4O[C@H](CO)[C@@H](O)[C@H](O)[C@H]4O)C(C)(C)[C@@H]3CC[C@]12C`, the values for the activity change, negative = inhibition in assay [1] and in assay [3] were 4.14% and 9.06%, respectively.

Regarding `CC(C)CCn1c(=O)c2ccc(C(=O)NC(C)C)cc2n2c(=O)n(CC(=O)NC3CCCCC3)nc12`, the activity change, negative = inhibition in assay [1] is 4.23%; in assay [2], 4.41%; in assay [3], 6.32%; in assay [4], 0.769%; in assay [5], -0.609%.

Turning to `CC(C)c1ccc(C(O)Cn2ccn3nc(-c4ccc(F)cc4)cc3c2=O)cc1` (configuration not stated), the activity change, negative = inhibition in assay [1] was -1.7%; in assay [2], 1.2%; in assay [3], -1.03%; in assay [4], 2.06%; in assay [5] it was 1%.

As to `CC1(C(=O)NCc2ccccc2)Cn2c(nc3ccccc32)C(=O)N1Cc1ccc(Cl)cc1` (configuration not stated), the activity change, negative = inhibition stood at 2.08% in assay [1]; 0.679% in assay [2]; 3.04% in assay [3]; 3.7% in assay [4]; 0.228% in assay [5].

Turning to `COc1cccc(C2=NOC(C(=O)NCc3ccccn3)C2)c1` (configuration not stated), the activity change, negative = inhibition was -4.95% in assay [1]; 3.41% in assay [2]; -0.174% in assay [3]; 6.77% in assay [4]; -5.88% in assay [5].

For the compound `CCOCCCNC(=O)C1c2c(n(C)c3ccccc23)SCC(=O)N1c1ccc(OC)cc1` (configuration not stated), the activity change, negative = inhibition in assay [1] was determined as 12.7%; in assay [2], 2.25%; in assay [3], 5.86%; in assay [4], 0.269%; in assay [5], 12.3%.

For the compound `COc1ccc(CCNS(=O)(=O)c2ccc3[nH]c(=O)[nH]c3c2)cc1OC`, the activity change, negative = inhibition in assay [1] is -4.26%; in assay [2], 2.08%; in assay [3] it was 11.5%; in assay [4], 3.37%; in assay [5], 1.95%.

Turning to `Cc1cccc(C(C)C)c1NC(=O)Cn1c(=O)oc2cc(S(=O)(=O)N3CCCC3)ccc21`, the activity change, negative = inhibition was -2.75% in assay [1]; 4.36% in assay [2]; -1.96% in assay [3]; 1.48% in assay [4]; -4.54% in assay [5].

`COc1c2c(c(C)c3c1C(=O)OC3)OC1(C)CC(O)C3(O)C(C)(C)OC(=O)CCC3(C)C1C2` (configuration not stated): the activity change, negative = inhibition is 0.113% in assay [1]; 5.95% in assay [2]; 9.13% in assay [3]; -6.67% in assay [4]; 5.26% in assay [5].

As for `O=C(NCCC1CCN(S(=O)(=O)c2ccccc2)CC1)NCc1ccco1`, the activity change, negative = inhibition is 3.45% in assay [1]; 1.43% in assay [2]; 1.07% in assay [3]; 0.34% in assay [4]; 4.23% in assay [5].

For the compound `Cc1cccc(OCC(=O)Nc2ccc3c(c2)C(=O)N(C)C2=NCCN23)c1`, the activity change, negative = inhibition stood at 3.67% in assay [1]; 0% in assay [2]; 9.97% in assay [3]; 6.88% in assay [4]; 6.3% in assay [5].

For `CC1(C(=O)NC2CCCCCC2)Cn2c(cc3sccc32)C(=O)N1c1cccc(Cl)c1` (configuration not stated), the activity change, negative = inhibition was -0.701% in assay [1]; 3.27% in assay [2]; -2.91% in assay [3]; -1.32% in assay [4]; -4.31% in assay [5].

Values taken from PubChem BioAssay AID1745853 (National Center for Advancing Translational Sciences (NCATS), 2022).
